Source: patent US20240190958A1, “NOVEL ANTIBODY DRUG CONJUGATES WITH NOVEL NAPI2B ANTIBODIES, THERAPEUTIC METHODS AND USES THEREOF” (Tubulis GmbH, priority 2022, published 2024)

Experiments:
OVCAR-3 cells [1] = test: In vivo efficacy in a cell line derived xenograft model (CDX); design: species or system CB17-Scid mice; conditions: single dose 1 mg/kg
Procedure: In brief, 1×10^7 OVCAR-3 cells (100 μL+100 μL Matrigel) were subcutaneously injected to CB17-Scid mice.

[2] = tested on: patient derived tumor models (lung, endometrial and ovarian cancer); test: In vivo efficacy in patient derived xenograft models (PDX), 10 mg/kg; design: species or system NMRI nu/nu mice; conditions: 10 mg/kg once at day 0, intravenous
[3] = 10 and 20 mg/kg intravenous
HCC-78 cells = test: DNA damage and apoptosis markers by flow cytometry (HCC-78); format: cell-based; conditions: 0.05-12 μg/ml, 72 h
Procedure: (§1) Topoisomerase-I inhibition by delivery of exatecan via the AV25-P5(PEG24)-VC-PAB-Exatecan DAR8 ADC induces DNA damage as detected by the accumulation of cleaved PARP, active caspase 3 and phosphorylated histon 2AX (pH2AX). OVCAR-3 and HCC-78 cells (both Napi2b^high) were treated with increasing concentrations (0.05-12 μg/ml) of AV25-P5(PEG24)-VC-PAB-Exatecan or an Isotype control (isotype-P5(PEG24)-VC-PAB-Exatecan for 72 h. Cells were stained with live/dead stain (Thermo Fisher Scientific) and after fixation and permeabilization using the Fixation/Permeabilization kit (BD Biosciences) for the DNA damage markers active caspase 3, cleaved PARP and pH2AX (Ser-139) (all BD Biosciences) and analyzed by flow cytometry. Graphs show means of n=2±SEM.

[4] = 5, 3 and 1 mg/kg
Procedure: All animal experiments were conducted in accordance with German animal welfare law and approved by local authorities. […] Treatment was initiated when tumours reached a mean tumour volume of 0.1-0.15 cm^3. […] Tumour volumes, body weights and general health conditions were recorded throughout the whole study.

OVCAR-3 cells [5] = test: DNA damage and apoptosis markers by flow cytometry (OVCAR-3); format: cell-based; conditions: 0.05-12 μg/ml, 72 h
Procedure: as §1

[6] = molecular target: T1, HEK293 cells overexpressing Napi2b (SLC34A2) (Homo sapiens, UniProt O95436); test: Binding to human NaPi2b evaluated by flow cytometry; conditions: HEK293 cells transfected with Napi2a
T1 construct: human or rat full-length Napi2b-mCherry-(GGGS)3×-mCherry expression construct; expressed in transfected cells; host or cells: HEK293
T1 sequence (O95436 1-690): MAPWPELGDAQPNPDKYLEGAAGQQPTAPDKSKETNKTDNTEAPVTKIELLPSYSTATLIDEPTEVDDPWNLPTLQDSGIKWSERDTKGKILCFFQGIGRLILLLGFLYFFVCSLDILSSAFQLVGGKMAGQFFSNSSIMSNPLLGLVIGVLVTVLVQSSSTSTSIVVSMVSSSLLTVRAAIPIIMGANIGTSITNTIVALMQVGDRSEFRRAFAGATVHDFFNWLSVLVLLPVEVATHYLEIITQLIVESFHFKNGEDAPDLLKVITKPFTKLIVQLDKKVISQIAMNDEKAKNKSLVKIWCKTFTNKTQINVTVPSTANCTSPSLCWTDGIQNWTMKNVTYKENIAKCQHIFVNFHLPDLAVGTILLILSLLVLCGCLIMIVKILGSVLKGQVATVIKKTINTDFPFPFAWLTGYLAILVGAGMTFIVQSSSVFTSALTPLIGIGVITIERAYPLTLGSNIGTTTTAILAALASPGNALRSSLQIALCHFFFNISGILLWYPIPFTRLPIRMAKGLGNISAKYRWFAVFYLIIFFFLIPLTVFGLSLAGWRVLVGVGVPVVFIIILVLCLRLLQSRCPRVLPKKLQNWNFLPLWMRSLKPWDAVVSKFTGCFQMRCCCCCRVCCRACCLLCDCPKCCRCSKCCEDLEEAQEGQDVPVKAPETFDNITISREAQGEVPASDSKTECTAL
Procedure: To determine concentration-dependent binding, HEK293 cells transiently or stably expressing human Napi2a-, Napi2b- and Napi2c-mCherry were incubated with antibodies or ADCs in concentrations ranging from 0.002 to 200 nM, stained with an Alexa-dye-labeled anti-human IgG H+L secondary antibody (Thermo Fisher Scientific), and analyzed by flow cytometry. Mean fluorescence intensity (MFI) ratios were normalized to the non-specific binding control. The assay was performed in duplicates and data points were analyzed by a non-linear regression using a one-site specific binding model using Prism 9 software.

[7] = tested on: OVCAR-3 and HCC-78 target cells; test: Calcein release-based ADCC assay with human NK cells; format: cell-based; conditions: 15 μg/ml, NK:target 4:1, 4 h
Procedure: and AV25-P5(PEG24)-VC-PAB-Exatecan DAR8 vs the isotypes and an anti-MHC-I positive control (Invivogen) was analyzed, which is mediated after interaction with FcγRIIIa (CD16). For the Calcein release-based antibody-dependent cellular cytotoxicity (ADCC) assay, peripheral blood mononuclear cells (PBMCs) were isolated from healthy donor buffy coats (purchased from DONAS GmbH) using LeucoSep tubes (Greiner Bio-One) and Histopaque®-1077 (density 1.077 g/ml, Merck) density gradient according to standard protocols. Afterwards, natural killer (NK) cells were MACS (magnetic cell separation)-sorted using human NK cell isolation kit (Miltenyi Biotec) by negative selection according to the manufacturer's instructions yielding untouched human primary NK cells. Napi2b-positive target cells OVCAR-3 and HCC-78 (both Napi2b^high) were stained with 16 μM Calcein AM (Thermo Fisher Scientific). 40.000 NK cells and 10.000 Calcein-stained target cells were incubated at a 4:1 ratio in the presence of 15 μg/ml antibodies or ADCs. Cells permeabilized with 2.5% Triton X 100 (Merck) served as a positive control for maximum Calcein release. After 4 h, supernatants were transferred to a flat black non-binding 96-well plate (Greiner Bio-One) and fluorescence was measured at 485/535 nM via the Infinite M200 Pro reader (Tecan). The percent specific killing was calculated by dividing the Calcein released by antibody-mediated killing minus background Calcein release (NKs+targets) from Calcein released by Triton X-permeabilized cells (maximum killing) minus background Calcein release (targets only). Graphs show means of n=2±SEM.

[8] = tested on: Lu7700 non-small cell lung cancer (NSCLC) model; test: Dose response PDX study (Lu7700); format: in vivo, NMRI nu/nu mice; conditions: once at day 0, 5, 3 or 1 mg/kg intravenous

B1: AV25-P5(PEG24)-VC-PAB-Exatecan DAR 8: ADC of AV25 (LALA) antibody conjugated to P5(PEG24)-VC-PAB-Exatecan at DAR8; TUB-040 presumably the same ADC (conjugate)
heavy: EVQLVQSGAEVVKPGASVKMSCKASGYTFTGYIIHWVKQAPGQGLEWIGAIYPGSGATSYKQKFRGRATLTADTSTSTVYMELSSLRSEDSAVYYCARGETARATFAYWGQGTLVTVSS[human IgG1 constant region with changes not shown]
light: DIQMTQSPSSLSASVGDRVTITCSASQDIGNFLNWYQQKPGKTVKVLIYYASSLYSGVPSRFSGSGSGTDYTLTISSLQPEDFATYYCQQYSKLPLTFGQGTKLELKRTVAAPSVFIFPPSDEQLKSGTASVVCLLNNFYPREAKVQWKVDNALQSGNSQESVTEQDSKDSTYSLSSTLTLSKADYEKHKVYACEVTHQGLSSPVTKSFNRGEC
- tumor relapse until the end of the observation period (OVCAR-3 cells [1]): does not show any tumor relapse
- efficacy compared to the vehicle control [2]: very high and long-lasting efficacy
- PK exposure profile [3]: good exposure profile, without enhanced in vivo clearance
- accumulation of DNA damage (cleaved PARP-, active caspase 3- and pH2AX-positive cells) (HCC-78 cells): concentration-dependent accumulation of DNA damage
- exposure profiles [4]: dose proportional exposure profiles
- in vivo stability of the ADC (total vs intact ADC) [4]: high stability
- accumulation of DNA damage (cleaved PARP-, active caspase 3- and pH2AX-positive cells) (OVCAR-3 cells [5]): concentration-dependent accumulation of DNA damage
- specificity of binding among Napi2a, Napi2b and Napi2c [6]: bind specifically to NaPi2b
- ADCC activity in human NK cells [7]: did not induce ADCC or only in very low amounts
- efficacy compared to the vehicle control [8]: highest and long-lasting efficacy

B2: AV25: humanized anti-NaPi2b IgG1 mAb clone, Fc-silenced (LALA); light chain SEQ ID NO: 6, heavy chain SEQ ID NO: 7 (antibody)
heavy: EVQLVQSGAEVVKPGASVKMSCKASGYTFTGYIIHWVKQAPGQGLEWIGAIYPGSGATSYKQKFRGRATLTADTSTSTVYMELSSLRSEDSAVYYCARGETARATFAYWGQGTLVTVSS[human IgG1 constant region with changes not shown]
light: B1 light
modifications: Heavy chain without a signal seqeunce; Light chain without a signal seqeunce
- specificity of binding among Napi2a, Napi2b and Napi2c [6]: bind specifically to NaPi2b
- ADCC activity in human NK cells [7]: did not induce ADCC or only in very low amounts

B3: AV25 HC-wt: Fc-wildtype AV25 mAb, heavy chain SEQ ID NO: 61 (antibody)
heavy: EVQLVQSGAEVVKPGASVKMSCKASGYTFTGYIIHWVKQAPGQGLEWIGAIYPGSGATSYKQKFRGRATLTADTSTSTVYMELSSLRSEDSAVYYCARGETARATFAYWGQGTLVTVSS[human IgG1 constant region not shown]
light: B1 light
- ADCC activity in human NK cells [7]: triggered high ADCC activity
